The source of these data is publication PMC4336329 (PLoS ONE, 2015).

The whole screen tested about 310,000 compounds, of which about 2,200 (0.71%) showed an effect of 50% or more. Effects have a minus sign here. The list shows a part of the results.

Chain of human ether-à-go-go-related gene (hERG) potassium channel (Q12809 whole entry, looked up): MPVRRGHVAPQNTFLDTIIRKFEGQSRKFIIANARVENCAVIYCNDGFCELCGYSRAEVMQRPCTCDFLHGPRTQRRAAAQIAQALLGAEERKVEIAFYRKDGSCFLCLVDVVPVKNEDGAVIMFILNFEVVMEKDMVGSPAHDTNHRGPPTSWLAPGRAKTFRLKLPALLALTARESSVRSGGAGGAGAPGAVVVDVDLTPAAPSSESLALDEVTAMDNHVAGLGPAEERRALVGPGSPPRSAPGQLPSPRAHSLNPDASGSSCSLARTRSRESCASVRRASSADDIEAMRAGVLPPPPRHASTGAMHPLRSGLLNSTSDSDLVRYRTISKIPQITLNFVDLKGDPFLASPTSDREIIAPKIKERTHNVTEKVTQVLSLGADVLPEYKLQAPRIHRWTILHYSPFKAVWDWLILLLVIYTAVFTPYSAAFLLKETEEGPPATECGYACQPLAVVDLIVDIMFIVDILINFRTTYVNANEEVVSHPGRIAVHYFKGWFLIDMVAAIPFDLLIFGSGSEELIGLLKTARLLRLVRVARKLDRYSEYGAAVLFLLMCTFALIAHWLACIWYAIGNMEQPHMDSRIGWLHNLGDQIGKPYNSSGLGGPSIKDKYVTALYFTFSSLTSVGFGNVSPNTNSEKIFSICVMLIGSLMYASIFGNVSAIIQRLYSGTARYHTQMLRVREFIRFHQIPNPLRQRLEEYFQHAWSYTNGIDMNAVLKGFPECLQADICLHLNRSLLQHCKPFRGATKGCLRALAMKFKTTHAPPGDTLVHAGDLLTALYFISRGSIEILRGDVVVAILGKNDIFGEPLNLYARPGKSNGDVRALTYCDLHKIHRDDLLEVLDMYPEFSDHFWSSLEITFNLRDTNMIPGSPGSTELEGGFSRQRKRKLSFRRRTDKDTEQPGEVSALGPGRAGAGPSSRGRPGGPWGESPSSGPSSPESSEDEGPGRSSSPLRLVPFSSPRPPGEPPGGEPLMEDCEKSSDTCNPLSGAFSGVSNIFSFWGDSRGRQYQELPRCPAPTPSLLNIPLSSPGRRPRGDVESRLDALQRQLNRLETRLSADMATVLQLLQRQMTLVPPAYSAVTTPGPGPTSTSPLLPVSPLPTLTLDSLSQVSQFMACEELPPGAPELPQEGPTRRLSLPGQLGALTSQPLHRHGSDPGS

This assay addresses human ether-à-go-go-related gene (hERG) potassium channel (human, UniProt Q12809). Nature of the assay: primary screen, population patch clamp on CHO cells stably expressing hERG.
Regarding `O=C(NCC(c1cccnc1)N1CCOCC1)Nc1ccccc1` (stereo not drawn), the “hERG current change (%, negative = inhibition) at 1uM” value is listed as 12.4%. As for `COC(=O)C1=CO[C@@H](OC2OC(CO)C(O)C(O)C2O)[C@@H]2[C@@H](C)[C@@H](O)C[C@H]12` (stereo partly drawn), the figure is 7.5%; as for `COc1ccc(Cl)cc1NC(=O)CN1CCCCCC1`, 5.35%. As for `CN(C)CCCNc1ncnc2scc(-c3ccccc3)c12.O=C(O)C(=O)O`, the figure is -2.63%; as for `COc1ccccc1NC(=O)N1CCN(c2ccc3nnc(-c4ccc(F)cc4)n3n2)CC1`, 13.5%. Regarding `C=CCNCc1ccc(C(=O)NCCCCCCC)cc1[N+](=O)[O-]`, the “hERG current change (%, negative = inhibition) at 1uM” value came out at 4.53%. In the case of `CCOC(=O)c1ccc(NC(=O)COc2ccc(S(=O)(=O)N3CCCC3)cc2)cc1` it was 6.91%; in that of `COc1ccc(CC(=O)NNC(=O)c2cnccn2)cc1`, 11.1%.

In the case of `O=C(CSc1ccc(Cl)cc1)Nc1cccc(-c2nnc(-c3ccco3)o2)c1`, the “hERG current change (%, negative = inhibition) at 1uM” value is 11%.

`COC(=O)C1=C(C(=O)OC)C2(OC1c1cccc(F)c1)C(=O)c1ccccc1C2=O` (stereo not drawn): the “hERG current change (%, negative = inhibition) at 1uM” value turned out to be 11.6%. Turning to `O=C(Nc1ccc(NC(=O)c2cccnc2)cc1)c1ccccc1`, the “hERG current change (%, negative = inhibition) at 1uM” value is on record as 9.97%. As for `CCOC(=O)C(=CNc1ccc(C#N)cc1)C(=O)OCC`, the figure is -9.75%. Regarding `CCCCN1CCNC[C@@H]1Cc1ccccc1`, the “hERG current change (%, negative = inhibition) at 1uM” value came to 7.92%. In the case of `O=c1cc(-c2ccc(O)cc2)oc2cc(O)c(C3OC(CO)C(O)C(O)C3O)c(O)c12` (stereo not drawn) it was 11.2%.

On to `S=C(NCc1ccccc1)Nc1ccc(Cl)cc1`, for which the “hERG current change (%, negative = inhibition) at 1uM” value is recorded as -4.75%. As for `CCOc1ccc(N(CC(=O)Nc2ccc(OC)cc2)S(C)(=O)=O)cc1`, the figure is 7.86%; as for `NS(=O)(=O)c1ccc(NC(=S)NC(=O)c2cccnc2)cc1`, 7.17%; as for `COc1ccccc1NC(=O)Nc1ccc(NC(=O)c2ccccc2O)cc1`, -2.66%. As for `N/C(=N\OC(=O)c1cnn(-c2ccccc2)c1C(F)(F)F)c1ccc(C(F)(F)F)cc1`, the figure is 14.4%; as for `CCn1c(SCC(=O)N(C)CC(=O)Nc2cccc(OC)c2)nnc1-c1ccco1`, 15.3%. For `Cc1ccc(CN(Cc2cc3cc4c(cc3[nH]c2=O)OCCO4)Cc2nnnn2Cc2ccco2)cc1`, the “hERG current change (%, negative = inhibition) at 1uM” value is reported as 1.81%. Consider `Cc1cccc(C(=O)Nc2ccc(NC(=O)Cc3ccc(Cl)cc3)cc2)c1`, for which the “hERG current change (%, negative = inhibition) at 1uM” value came to 13.1%. In the case of `CCOc1ccc(NC2c3ccccc3C(=O)N2Cc2ccco2)cc1` (stereo not drawn) it was 5.84%; in that of `O=c1c(-c2ccccc2Cl)coc2c(CN3CCCCC3)c(O)ccc12`, 14.3%.
